Like-named read-outs stand apart in the source and are kept apart here. For some of these results: At least one peptide structure holds a part that was inferred or is arguable (an end, a ring closure or a residue). For some of these results: At least one read-out could not be matched to a standard name with certainty. For some of these results: For at least one compound, name, drawing or mass did not settle the structure.
Tests used:
rNav1.7 = rNav1.7 (Rattus norvegicus, UniProt O08562); format: cell-based
mNav1.7 = mNav1.7 (Mus musculus, UniProt Q62205); format: cell-based
mouse Nav1.4 = mouse Nav1.4 (Mus musculus, UniProt Q9ER60); format: cell-based
hNav1.6 = hNav1.6 (Homo sapiens, UniProt Q9UQD0); format: cell-based; conditions: Table 15; read-out: PX hNav1.6 Tonic IC50
hNav1.5 = hNav1.5 (Homo sapiens, UniProt Q14524); format: cell-based; conditions: Table 12; PatchXpress, tonic block; read-out: PX hNav1.5 Tonic IC50
hNav1.4 = hNav1.4 (Homo sapiens, UniProt P35499); format: cell-based; conditions: Table 12; PatchXpress, tonic block; read-out: PX hNav1.4 Tonic IC50
hNav1.7 = hNav1.7 (Homo sapiens, UniProt Q15858); format: cell-based; conditions: read-out: PX hNav1.7 Tonic IC50

mouse Nav1.4, sequence (Q9ER60 whole entry): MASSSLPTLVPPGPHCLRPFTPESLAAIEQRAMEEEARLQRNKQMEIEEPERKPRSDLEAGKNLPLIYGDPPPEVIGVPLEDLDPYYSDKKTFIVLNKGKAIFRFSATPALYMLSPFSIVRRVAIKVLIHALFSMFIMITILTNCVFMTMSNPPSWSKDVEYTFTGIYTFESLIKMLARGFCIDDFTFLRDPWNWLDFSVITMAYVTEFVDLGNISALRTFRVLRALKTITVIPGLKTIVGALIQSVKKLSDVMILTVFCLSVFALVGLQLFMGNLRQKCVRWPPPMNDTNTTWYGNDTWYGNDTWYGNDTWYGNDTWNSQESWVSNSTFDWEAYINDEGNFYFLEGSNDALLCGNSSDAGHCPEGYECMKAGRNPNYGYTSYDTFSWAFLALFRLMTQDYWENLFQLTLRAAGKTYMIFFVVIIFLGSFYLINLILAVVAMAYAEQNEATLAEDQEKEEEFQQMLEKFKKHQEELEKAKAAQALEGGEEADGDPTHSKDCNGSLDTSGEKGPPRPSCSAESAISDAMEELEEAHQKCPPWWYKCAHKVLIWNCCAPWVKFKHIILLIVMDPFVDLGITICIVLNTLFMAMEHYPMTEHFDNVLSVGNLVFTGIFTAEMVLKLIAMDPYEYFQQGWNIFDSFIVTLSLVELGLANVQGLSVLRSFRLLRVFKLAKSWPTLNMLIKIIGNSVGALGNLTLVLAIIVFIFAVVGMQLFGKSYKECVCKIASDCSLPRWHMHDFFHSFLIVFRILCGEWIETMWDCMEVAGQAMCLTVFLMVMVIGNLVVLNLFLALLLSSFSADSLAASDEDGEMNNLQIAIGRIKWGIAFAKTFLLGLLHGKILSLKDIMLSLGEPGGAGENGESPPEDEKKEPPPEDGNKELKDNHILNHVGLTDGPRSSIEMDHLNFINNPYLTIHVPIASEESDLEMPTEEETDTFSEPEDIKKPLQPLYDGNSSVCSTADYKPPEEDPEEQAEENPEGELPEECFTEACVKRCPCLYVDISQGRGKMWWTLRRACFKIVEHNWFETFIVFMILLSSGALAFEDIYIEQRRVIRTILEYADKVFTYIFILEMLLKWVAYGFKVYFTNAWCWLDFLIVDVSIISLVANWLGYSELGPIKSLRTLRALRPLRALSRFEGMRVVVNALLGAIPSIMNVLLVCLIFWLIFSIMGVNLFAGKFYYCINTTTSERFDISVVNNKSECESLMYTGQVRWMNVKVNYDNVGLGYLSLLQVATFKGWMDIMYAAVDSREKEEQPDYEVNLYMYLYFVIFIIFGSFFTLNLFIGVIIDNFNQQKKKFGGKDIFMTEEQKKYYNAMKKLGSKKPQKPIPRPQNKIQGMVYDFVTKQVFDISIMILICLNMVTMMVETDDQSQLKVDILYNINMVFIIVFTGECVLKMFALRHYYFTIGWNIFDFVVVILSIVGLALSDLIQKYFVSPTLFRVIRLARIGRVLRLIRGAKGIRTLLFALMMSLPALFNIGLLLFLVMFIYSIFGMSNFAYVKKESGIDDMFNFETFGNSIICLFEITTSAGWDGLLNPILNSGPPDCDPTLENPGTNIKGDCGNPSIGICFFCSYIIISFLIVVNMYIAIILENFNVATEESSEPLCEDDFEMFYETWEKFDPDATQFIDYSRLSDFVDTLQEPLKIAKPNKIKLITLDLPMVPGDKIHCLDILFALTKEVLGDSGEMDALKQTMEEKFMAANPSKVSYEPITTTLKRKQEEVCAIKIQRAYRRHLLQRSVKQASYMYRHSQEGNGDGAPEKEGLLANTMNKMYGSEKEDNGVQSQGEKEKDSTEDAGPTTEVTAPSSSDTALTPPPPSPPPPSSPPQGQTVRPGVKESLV
mNav1.7, sequence (Q62205 whole entry): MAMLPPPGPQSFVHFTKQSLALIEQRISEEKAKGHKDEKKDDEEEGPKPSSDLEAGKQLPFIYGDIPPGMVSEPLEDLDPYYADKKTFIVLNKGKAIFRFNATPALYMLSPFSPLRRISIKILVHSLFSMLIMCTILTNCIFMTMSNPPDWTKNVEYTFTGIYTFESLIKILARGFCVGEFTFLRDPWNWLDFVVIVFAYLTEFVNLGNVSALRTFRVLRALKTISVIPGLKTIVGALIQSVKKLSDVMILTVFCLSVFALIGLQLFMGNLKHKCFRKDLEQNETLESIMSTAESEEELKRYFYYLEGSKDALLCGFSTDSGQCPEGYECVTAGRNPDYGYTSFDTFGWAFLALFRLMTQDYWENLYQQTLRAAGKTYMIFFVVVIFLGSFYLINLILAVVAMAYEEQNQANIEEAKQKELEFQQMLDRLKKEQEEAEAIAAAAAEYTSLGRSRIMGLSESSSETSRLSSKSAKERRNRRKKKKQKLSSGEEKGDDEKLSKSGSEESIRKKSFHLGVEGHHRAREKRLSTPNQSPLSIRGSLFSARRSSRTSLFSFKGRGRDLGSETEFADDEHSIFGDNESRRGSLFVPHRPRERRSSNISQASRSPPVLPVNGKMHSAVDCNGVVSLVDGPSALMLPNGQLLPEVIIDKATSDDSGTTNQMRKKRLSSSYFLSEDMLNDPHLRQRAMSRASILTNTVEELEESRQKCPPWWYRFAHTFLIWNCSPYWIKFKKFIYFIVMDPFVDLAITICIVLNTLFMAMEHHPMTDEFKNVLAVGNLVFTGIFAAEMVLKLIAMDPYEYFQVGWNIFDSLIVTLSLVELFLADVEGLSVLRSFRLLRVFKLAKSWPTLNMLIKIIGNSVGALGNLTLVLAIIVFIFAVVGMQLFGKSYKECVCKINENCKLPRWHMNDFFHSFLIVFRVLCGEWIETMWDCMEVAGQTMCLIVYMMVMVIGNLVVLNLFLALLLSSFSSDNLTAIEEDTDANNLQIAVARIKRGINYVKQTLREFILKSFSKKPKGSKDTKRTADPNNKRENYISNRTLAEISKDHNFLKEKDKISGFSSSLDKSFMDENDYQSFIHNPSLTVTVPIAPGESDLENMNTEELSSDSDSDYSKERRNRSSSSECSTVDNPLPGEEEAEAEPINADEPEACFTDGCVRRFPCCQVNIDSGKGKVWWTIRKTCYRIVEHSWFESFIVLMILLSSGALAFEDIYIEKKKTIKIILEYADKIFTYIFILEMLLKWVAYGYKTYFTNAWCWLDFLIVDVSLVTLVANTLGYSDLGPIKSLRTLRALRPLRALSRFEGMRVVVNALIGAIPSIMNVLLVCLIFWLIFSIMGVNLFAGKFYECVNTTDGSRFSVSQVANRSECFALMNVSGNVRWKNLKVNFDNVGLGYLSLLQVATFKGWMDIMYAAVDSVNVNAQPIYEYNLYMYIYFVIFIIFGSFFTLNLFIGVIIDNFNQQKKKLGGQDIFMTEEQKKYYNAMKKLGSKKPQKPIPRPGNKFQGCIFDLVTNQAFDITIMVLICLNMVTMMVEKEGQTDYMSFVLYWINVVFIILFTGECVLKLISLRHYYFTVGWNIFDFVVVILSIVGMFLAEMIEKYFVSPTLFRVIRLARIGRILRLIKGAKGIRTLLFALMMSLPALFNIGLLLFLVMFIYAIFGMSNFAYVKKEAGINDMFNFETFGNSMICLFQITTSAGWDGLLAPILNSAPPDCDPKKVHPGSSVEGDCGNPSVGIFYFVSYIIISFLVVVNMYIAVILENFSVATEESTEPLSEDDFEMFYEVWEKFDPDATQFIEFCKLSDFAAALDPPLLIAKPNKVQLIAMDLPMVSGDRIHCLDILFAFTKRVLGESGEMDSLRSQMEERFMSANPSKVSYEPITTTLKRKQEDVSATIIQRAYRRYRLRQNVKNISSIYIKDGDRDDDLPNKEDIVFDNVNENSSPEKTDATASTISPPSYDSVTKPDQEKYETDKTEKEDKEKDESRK

Which results are given for `C#CC[C@@H]1NC(=O)[C@@H]2CSSC[C@H](NC(=O)[C@H](Cc3ccc(O)cc3)NC(=O)[C@@H](N)CC#N)C(=O)N[C@@H](CCC(N)=O)C(=O)N[C@@H](CCCCN)C(=O)N[C@@H](Cc3c[nH]c4ccccc34)C(=O)N[C@@H](CCCC)C(=O)N[C@@H](Cc3c[nH]c4ccccc34)C(=O)N[C@@H]([C@@H](C)O)C(=O)N[C@H]3CSSC[C@H](NC(=O)[C@H](CCCNC(=N)N)NC(=O)[C@H](CC(C)C)NC(=O)CNC1=O)C(=O)N[C@@H](CCCCN)C(=O)N[C@@H](CC(C)C)C(=O)N[C@@H](Cc1c[nH]c4ccccc14)C(=O)N[C@H](C(=O)N[C@@H](CCCNC(=N)N)C(=O)N[C@@H](CCCCN)C(=O)N[C@@H](CCC(=O)O)C(=O)N[C@H](C(N)=O)[C@@H](C)CC)CSSC[C@H](NC(=O)[C@H](C)NC(=O)[C@H](CCCNC(=N)N)NC(=O)[C@H](CCCCN)NC(=O)[C@H](CO)NC(=O)[C@H](CC(=O)O)NC3=O)C(=O)N2` [CyA-[Nle6, Pra17, Glu28]JzTx-V(1-29)]?
rNav1.7/hNav1.7 (rNav1.7; ratio of PX tonic IC50, rat Nav1.7 over human Nav1.7): 1.81; mNav1.7/hNav1.7 (mNav1.7; ratio of PX tonic IC50, mouse Nav1.7 over human Nav1.7): 6.16; mNav1.4/mNav1.7 (mouse Nav1.4; ratio of PX tonic IC50, mouse Nav1.4 over mouse Nav1.7): 6.7

With `C#CC[C@H](N)C(=O)N[C@@H](Cc1ccc(O)cc1)C(=O)N[C@H]1CSSC[C@@H]2NC(=O)[C@@H]3CSSC[C@@H](C(=O)N[C@@H](CCCNC(=N)N)C(=O)N[C@@H](CCCCN)C(=O)N[C@@H](CCC(=O)O)C(=O)N[C@H](C(N)=O)[C@@H](C)CC)NC(=O)[C@H](Cc4c[nH]c5ccccc45)NC(=O)[C@H](CC(C)C)NC(=O)[C@H](CCCCN)NC(=O)[C@H](CSSC[C@H](NC(=O)[C@H]([C@@H](C)O)NC(=O)[C@H](Cc4c[nH]c5ccccc45)NC(=O)[C@H](CCCC)NC(=O)[C@H](Cc4c[nH]c5ccccc45)NC(=O)[C@H](CCCCN)NC(=O)[C@H](CCC(N)=O)NC1=O)C(=O)N[C@@H](CC(=O)O)C(=O)N[C@@H](CCC(=O)O)C(=O)N[C@@H](CCCCN)C(=O)N[C@@H](CCCNC(=N)N)C(=O)N[C@@H](C)C(=O)N3)NC(=O)[C@H](CCCNC(=N)N)NC(=O)[C@H](CC(C)C)NC(=O)CNC(=O)[C@H](CCC(=O)O)NC2=O` [Pra-[Nle6; Glu11, 28]JzTx-V(1-29)] as the compound, how does the IC50 (rNav1.7; PatchXpress, tonic block, rat Nav1.7, read-out: PX rNav1.7 Tonic IC50) read?
The IC50 was 1.5 nM.

What about the IC50 (mNav1.7; PatchXpress, tonic block, mouse Nav1.7, read-out: PX mNav1.7 Tonic IC50) of the same compound?
Its IC50 is 16.7 nM.

What about the IC50 (mouse Nav1.4; PatchXpress, tonic block, mouse Nav1.4, read-out: PX mNav1.4 Tonic IC50) of the same compound?
Its IC50 is 565 nM.

Which “time of Cmax” value (male CD-1 mice, 5 mg/kg s.c.) does the source give for `C#CC[C@H](N)C(=O)N[C@@H](Cc1ccc(O)cc1)C(=O)N[C@H]1CSSC[C@@H]2NC(=O)[C@@H]3CSSC[C@@H](C(=O)N[C@@H](CCCNC(=N)N)C(=O)N[C@@H](CCCCN)C(=O)N[C@@H](CCC(=O)O)C(=O)N[C@H](C(N)=O)[C@@H](C)CC)NC(=O)[C@H](Cc4c[nH]c5ccccc45)NC(=O)[C@H](CC(C)C)NC(=O)[C@H](CCCCN)NC(=O)[C@H](CSSC[C@H](NC(=O)[C@H]([C@@H](C)O)NC(=O)[C@H](Cc4c[nH]c5ccccc45)NC(=O)[C@H](CCCC)NC(=O)[C@H](Cc4c[nH]c5ccccc45)NC(=O)[C@H](CCCCN)NC(=O)[C@H](CCC(N)=O)NC1=O)C(=O)N[C@@H](CC(=O)O)C(=O)N[C@@H](CO)C(=O)N[C@@H](CCCCN)C(=O)N[C@@H](CCCNC(=N)N)C(=O)N[C@@H](C)C(=O)N3)NC(=O)[C@H](CCCNC(=N)N)NC(=O)[C@H](CC(C)C)NC(=O)CNC(=O)[C@H](CCC(=O)O)NC2=O` [compound 328] here?
The value was 2 h.

Which “time of Cmax” value (CD-1 male mouse, 2 mg/kg s.c.) does the source give for `C#CC[C@@H]1NC(=O)[C@@H]2CSSC[C@H](NC(=O)[C@H](Cc3ccc(O)cc3)NC(=O)[C@@H](N)CC#N)C(=O)N[C@@H](CCC(N)=O)C(=O)N[C@@H](CCCCN)C(=O)N[C@@H](Cc3c[nH]c4ccccc34)C(=O)N[C@@H](CCCC)C(=O)N[C@@H](Cc3c[nH]c4ccccc34)C(=O)N[C@@H]([C@@H](C)O)C(=O)N[C@H]3CSSC[C@H](NC(=O)[C@H](CCCNC(=N)N)NC(=O)[C@H](CC(C)C)NC(=O)CNC1=O)C(=O)N[C@@H](CCCCN)C(=O)N[C@@H](CC(C)C)C(=O)N[C@@H](Cc1c[nH]c4ccccc14)C(=O)N[C@H](C(=O)N[C@@H](CCCNC(=N)N)C(=O)N[C@@H](CCCCN)C(=O)N[C@@H](CCC(=O)O)C(=O)N[C@H](C(N)=O)[C@@H](C)CC)CSSC[C@H](NC(=O)[C@H](C)NC(=O)[C@H](CCCNC(=N)N)NC(=O)[C@H](CCCCN)NC(=O)[C@H](CO)NC(=O)[C@H](CC(=O)O)NC3=O)C(=O)N2` [compound 395] here?
Its value is 1 h.

With `C#CC[C@H](N)C(=O)N[C@@H](Cc1ccc(O)cc1)C(=O)N[C@H]1CSSC[C@@H]2NC(=O)[C@@H]3CSSC[C@@H](C(=O)N[C@@H](CCCNC(=N)N)C(=O)N[C@@H](CCCCN)C(=O)N[C@@H](CCC(=O)O)C(=O)N[C@H](C(N)=O)[C@@H](C)CC)NC(=O)[C@H](Cc4c[nH]c5ccccc45)NC(=O)[C@H](CC(C)C)NC(=O)[C@H](CCCCN)NC(=O)[C@H](CSSC[C@H](NC(=O)[C@H]([C@@H](C)O)NC(=O)[C@H](Cc4c[nH]c5ccccc45)NC(=O)[C@H](CCCC)NC(=O)[C@H](Cc4c[nH]c5ccccc45)NC(=O)[C@H](CCCCN)NC(=O)[C@H](CCC(N)=O)NC1=O)C(=O)N[C@@H](CC(=O)O)C(=O)N[C@@H](CCC(=O)O)C(=O)N[C@@H](CCCCN)C(=O)N[C@@H](CCCNC(=N)N)C(=O)N[C@@H](C)C(=O)N3)NC(=O)[C@H](CCCNC(=N)N)NC(=O)[C@H](CC(C)C)NC(=O)CNC(=O)[C@H](CCC(=O)O)NC2=O` [compound 714] as the compound, how does the IC50 (hNav1.6) read?
The IC50 was 1160 nM.

And the IC50 (hNav1.5)?
The IC50 was over 10000 nM.

And the IC50 (hNav1.4)?
Its IC50 is 381 nM.

What about the IC50 (hNav1.7; Table 12, PatchXpress, tonic block) of the same compound?
The IC50 was 1.58 nM.

And the IC50 (hNav1.7; Table 15)?
Its IC50 is 1.58 nM.

— US10344060B2 (priority 2013, dated 2019)
